Measurements from the supplement of paper PMC3334620.
Over roughly 33,000 sequences, “E-score (-0.5 to 0.5)” has its median near -0.054; the highest 2% begin near 0.39. This is one part of the list.

These sequences were tested against Ylr278c (UniProt Q05854) (assay: PBM E-score (8-mer binding enrichment) (E-score (-0.5 to 0.5)); higher = stronger / more preferred TF binding; most listed sequences are background and not binding sites). Conditions: protein concentration: 200 nM; construct: GST-DNA-binding domain.
In short: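 Yeast transcription factors carrying a GST tag, as full-length proteins or DNA-binding domains, were produced by PURExpress in vitro transcription/translation. About 100-200 nM protein was applied to universal all-10-mer Agilent arrays, double-stranded by primer extension on fresh or once-stripped slides. Bound protein was detected with fluorescent anti-GST, and scans were normalised with masliner. The Universal PBM Analysis Suite gave each ungapped eight-base word, pooled with its reverse complement, an E-score, a modified Wilcoxon-Mann-Whitney statistic.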

Sequence | PBM E-score
GAGGGGGC | -0.178
ATACGCCC | 0.0509
CATTACTA | -0.203
AGGTTCTA | -0.184
ATCCACGA | -0.27
CAAGCAGC | -0.151
CACTGTAA | -0.175
CTGACACA | -0.193
ATGTTCAG | -0.277
ACAAGAGT | -0.109
ATAAGAAG | 0.0772
CGCGTCTA | -0.0804
AGCAACAG | -0.0455
GCTCCGGA | 0.464
ACGGTCTA | -0.147
ACGTATTG | -0.11
GCACGGAC | 0.343
TGCTTACA | -0.23
AGACCCCA | -0.0081
ACCGGAGG | 0.441
ATGAGACG | -0.035
TGAGCCCA | -0.141
ACAGAGGA | -0.18
ACGGATCG | 0.142
AGGATCGG | 0.243

Sequence | PBM E-score
AGACCCGC | 0.0287
GATCAGCA | -0.0462
TAAATCAA | -0.053
GAAATCAA | -0.0183
CAGTTCGC | -0.025
AATAAAGC | 0.0162
CATATTGG | -0.156
CGATAGAA | 0.0452
CTTGGCGC | 0.0638
GTAGGAAA | -0.0689
GCTCCGTA | 0.405
ATATATAC | 0.0724
CATTCAAA | 0.0818
AGCTCCCG | 0.0891
ATGCAACA | -0.311
CACAGTCG | -0.188
AACCAGGG | -0.155
TATATCCA | -0.171
AAAGCTGG | -0.262
GTGTCAAC | -0.208
AGAATTTG | -0.214
AACCCAGC | -0.129
GCCTATAA | -0.116
GCGGACAC | 0.216
GCCTCAGA | -0.152

Sequence | PBM E-score
CAACCCCG | 0.397
CGAACTCC | 0.39
AATTGTCT | -0.113
TACCGATA | 0.176
AGGGTTGG | -0.0959
CAATTTTA | 0.0238
ACCACTAG | -0.218
ACCGTCAT | -0.0385
CGGCCCAG | 0.204
CCTCGACG | -0.00055
CAGGGGTA | -0.124
CGCTAGCG | -0.192
AACCTTGT | -0.291
TCTTCCCA | -0.198
AAGATGCT | -0.0321
GCGACAGC | -0.0396
AAGAATGA | -0.114
CCCGTCCG | 0.256
CCAATCCA | -0.0943
ACTCCAGC | -0.122
GACTCCCC | 0.0937
GCGGCGTA | 0.273
AACCCCAC | 0.0567
CAAGCACG | -0.132
AACCCCAT | 0.0652

Sequence | PBM E-score
ACATGGCA | -0.136
ACATTGTG | -0.153
ACGCGAAG | -0.0541
AAACACGG | 0.0382
AGAGGGGG | -0.322
AAACTACC | 0.0218
ATTAATTA | -0.128
AGGAGTGA | -0.0619
ACGTGGCC | -0.369
CGTTTCGA | -0.265
CAACCCGA | 0.104
CAGCCGGA | 0.434
AATACTGC | 0.0259
TCGAATCA | -0.25
GCCCACAA | -0.139
ACGGCACC | -0.0447
ACTCCTTA | -0.0802
CATTCCTA | -0.212
AAGTATAA | -0.0397
AGCTCGAA | 0.192
CAATGGCG | 0.162
TCGAGGCA | -0.242
GTGCCGCA | 0.0665
TCATTCCA | -0.106
GAAATGGC | 0.0487

Sequence | PBM E-score
AAAAGCGC | 0.00384
CAGTTACC | -0.116
GATAAATC | 0.132
ACGGGACT | 0.119
AACTAACC | 0.1
ATTGTCAA | -0.0784
ACCTAAGT | -0.015
CGAGAGCC | -0.0828
CAGCGGTA | 0.0697
CATAGAAG | -0.132
ACGCCGCA | 0.281
TCCCTCCA | -0.14
AGCCTAGA | -0.356
CGTAGGGC | -0.158
AATTGACA | 0.0574
CTTCGCAC | -0.164
TGGAACAA | -0.206
AATGCGCA | 0.149
AGTTACGG | 0.17
GTCTCATA | -0.0333
GTGCGTAA | -0.178
ACAAGAGC | -0.0774
CAGACAGC | -0.0585
ATGTATTG | 0.078
AATTCCTG | 0.0336

Sequence | PBM E-score
TCACCACA | -0.079
ATTACAAA | -0.0267
CAGGTATC | -0.165
AACAATAC | -0.0468
CATTTTTC | -0.00428
AGACCCTA | -0.201
CAAGCCAC | -0.321
AAGTCTTC | -0.273
AAATACGC | 0.145
ATTCAGCG | 0.0394
AAATCCGC | 0.401
CGGCACAA | 0.0576
ACAATTCG | 0.071
AGATGTTC | -0.075
GACCCACA | -0.00281
ATACGAAA | 0.172
CCGCCCGA | 0.322
AAATCGAG | 0.0338
ACCAGGGG | -0.259
ACTAATAC | 0.163
CGGCCTTC | 0.394
CCATGTAC | -0.215
GGTTTGTA | -0.0458
CGCTGCAC | 0.00488
GCCGTAAC | 0.085

Sequence | PBM E-score
CTGTTAAA | -0.235
CCACCAGC | -0.0173
GCCGGGAC | 0.255
GACGCCGA | 0.247
AGGAGCGG | 0.149
AAGGCCAC | -0.16
ATGCCACA | -0.134
GGAGGTAC | 0.171
CCCCATTC | 0.0131
GAAACTGC | 0.176
CGAGTTCC | 0.0896
TAATCATA | -0.145
GCCCGCTA | -0.184
CGAATTAC | 0.118
TGATGACA | -0.19
TCCCGCGA | 0.258
ACTTATGC | 0.00033
GAGATATC | 0.16
CGCCGTAG | 0.193
GGCGAACC | 0.139
CAAAACTC | 0.135
ACCAATAC | -0.0547
